# Where two headings read alike, the source gives them in different places. Results are given in words; binding and its absence hold for the method and conditions named. In cells and extracts the contact can be indirect. Some entries that bind do so weakly or less than the wild type. Sequences can lack the tags named with a protein.
# The chains behind the UniProt entries cited, without tags or fusion partners.
# UniProt P70335: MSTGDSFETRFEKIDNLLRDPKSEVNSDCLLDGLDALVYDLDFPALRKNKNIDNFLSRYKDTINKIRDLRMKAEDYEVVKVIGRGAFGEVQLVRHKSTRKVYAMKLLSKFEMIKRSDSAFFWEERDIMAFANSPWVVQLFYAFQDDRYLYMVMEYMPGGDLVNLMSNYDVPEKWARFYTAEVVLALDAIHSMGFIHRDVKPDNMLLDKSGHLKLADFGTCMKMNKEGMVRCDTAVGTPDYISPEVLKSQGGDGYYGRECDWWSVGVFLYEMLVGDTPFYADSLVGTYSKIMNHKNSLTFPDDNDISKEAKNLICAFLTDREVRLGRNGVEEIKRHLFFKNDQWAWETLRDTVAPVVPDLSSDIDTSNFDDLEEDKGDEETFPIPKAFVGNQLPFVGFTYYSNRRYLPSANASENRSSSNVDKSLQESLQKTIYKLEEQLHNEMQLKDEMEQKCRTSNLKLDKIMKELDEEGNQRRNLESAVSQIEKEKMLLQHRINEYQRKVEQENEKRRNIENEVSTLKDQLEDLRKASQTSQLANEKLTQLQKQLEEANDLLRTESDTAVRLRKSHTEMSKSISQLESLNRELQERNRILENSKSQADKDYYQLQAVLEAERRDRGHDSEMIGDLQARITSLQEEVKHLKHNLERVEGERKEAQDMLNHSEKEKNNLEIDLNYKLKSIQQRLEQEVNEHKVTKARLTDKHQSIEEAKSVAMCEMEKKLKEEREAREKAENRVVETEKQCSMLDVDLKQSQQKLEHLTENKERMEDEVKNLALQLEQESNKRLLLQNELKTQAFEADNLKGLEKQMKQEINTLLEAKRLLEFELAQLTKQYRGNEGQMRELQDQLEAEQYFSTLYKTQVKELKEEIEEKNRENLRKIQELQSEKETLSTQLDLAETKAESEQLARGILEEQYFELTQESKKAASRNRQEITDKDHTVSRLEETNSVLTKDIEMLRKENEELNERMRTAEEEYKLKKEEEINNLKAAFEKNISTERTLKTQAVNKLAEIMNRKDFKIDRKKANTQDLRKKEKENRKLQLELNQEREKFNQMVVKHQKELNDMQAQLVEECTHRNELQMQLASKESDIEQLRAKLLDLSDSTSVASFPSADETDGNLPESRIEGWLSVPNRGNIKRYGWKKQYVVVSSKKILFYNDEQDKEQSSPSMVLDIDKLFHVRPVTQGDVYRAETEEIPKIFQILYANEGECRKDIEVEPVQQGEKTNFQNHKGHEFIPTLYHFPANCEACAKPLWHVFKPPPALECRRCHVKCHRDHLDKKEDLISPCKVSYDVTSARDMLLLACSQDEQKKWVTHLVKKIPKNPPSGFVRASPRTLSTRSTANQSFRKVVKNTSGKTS
# UniProt Q6DFV3: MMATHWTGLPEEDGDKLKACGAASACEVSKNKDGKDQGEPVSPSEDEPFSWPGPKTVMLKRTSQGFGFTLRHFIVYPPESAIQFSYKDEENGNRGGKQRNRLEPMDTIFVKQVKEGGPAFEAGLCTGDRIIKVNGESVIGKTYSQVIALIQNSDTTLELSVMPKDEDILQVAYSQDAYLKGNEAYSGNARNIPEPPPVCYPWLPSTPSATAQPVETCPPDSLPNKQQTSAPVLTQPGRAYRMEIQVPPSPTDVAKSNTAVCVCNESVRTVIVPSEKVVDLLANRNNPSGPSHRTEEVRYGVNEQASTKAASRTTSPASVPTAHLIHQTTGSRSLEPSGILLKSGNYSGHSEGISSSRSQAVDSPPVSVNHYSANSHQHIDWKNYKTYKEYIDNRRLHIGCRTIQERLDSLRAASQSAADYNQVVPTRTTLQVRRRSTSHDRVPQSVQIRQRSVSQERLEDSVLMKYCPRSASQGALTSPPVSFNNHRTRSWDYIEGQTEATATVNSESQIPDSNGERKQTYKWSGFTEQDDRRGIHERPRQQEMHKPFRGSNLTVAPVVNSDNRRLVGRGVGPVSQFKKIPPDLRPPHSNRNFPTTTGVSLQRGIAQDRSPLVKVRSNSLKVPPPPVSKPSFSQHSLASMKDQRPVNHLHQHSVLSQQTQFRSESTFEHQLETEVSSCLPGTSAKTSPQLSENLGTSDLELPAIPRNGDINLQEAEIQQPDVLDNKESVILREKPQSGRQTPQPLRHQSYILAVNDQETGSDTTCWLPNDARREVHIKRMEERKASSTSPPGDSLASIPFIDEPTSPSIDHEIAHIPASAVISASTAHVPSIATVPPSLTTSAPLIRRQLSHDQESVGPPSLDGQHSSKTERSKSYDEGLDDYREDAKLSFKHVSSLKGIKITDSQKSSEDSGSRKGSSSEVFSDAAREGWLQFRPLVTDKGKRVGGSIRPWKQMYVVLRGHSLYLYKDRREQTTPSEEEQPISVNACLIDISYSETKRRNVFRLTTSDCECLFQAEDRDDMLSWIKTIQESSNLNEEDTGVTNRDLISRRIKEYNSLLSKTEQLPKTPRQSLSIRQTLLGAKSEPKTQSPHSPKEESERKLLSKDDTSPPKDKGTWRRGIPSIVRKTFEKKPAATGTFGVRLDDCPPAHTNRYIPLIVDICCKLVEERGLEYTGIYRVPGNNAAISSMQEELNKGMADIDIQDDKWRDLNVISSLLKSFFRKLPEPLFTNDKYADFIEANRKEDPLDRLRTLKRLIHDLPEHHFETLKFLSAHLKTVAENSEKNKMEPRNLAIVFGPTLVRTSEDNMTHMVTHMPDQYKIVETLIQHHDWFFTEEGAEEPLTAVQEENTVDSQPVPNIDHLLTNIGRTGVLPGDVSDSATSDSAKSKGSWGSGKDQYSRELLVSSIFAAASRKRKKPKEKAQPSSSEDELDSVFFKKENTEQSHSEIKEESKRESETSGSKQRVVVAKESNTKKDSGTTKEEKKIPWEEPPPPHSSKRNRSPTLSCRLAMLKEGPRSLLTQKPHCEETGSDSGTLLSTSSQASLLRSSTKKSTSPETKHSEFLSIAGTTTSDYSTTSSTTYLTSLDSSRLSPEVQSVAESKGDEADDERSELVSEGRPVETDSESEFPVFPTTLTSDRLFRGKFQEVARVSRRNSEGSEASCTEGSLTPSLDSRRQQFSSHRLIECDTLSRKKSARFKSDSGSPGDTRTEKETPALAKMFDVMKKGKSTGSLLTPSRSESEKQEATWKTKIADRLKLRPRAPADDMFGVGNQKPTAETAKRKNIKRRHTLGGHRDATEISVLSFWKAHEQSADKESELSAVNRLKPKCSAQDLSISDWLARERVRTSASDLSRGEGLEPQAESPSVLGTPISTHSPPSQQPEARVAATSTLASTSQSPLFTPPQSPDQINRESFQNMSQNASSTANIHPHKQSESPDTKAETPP
# T1: human PKP4 N-terminally tagged with EGFP (EGFP-PKP4-WT) (human) (UniProt Q99569)
# T1 sequence: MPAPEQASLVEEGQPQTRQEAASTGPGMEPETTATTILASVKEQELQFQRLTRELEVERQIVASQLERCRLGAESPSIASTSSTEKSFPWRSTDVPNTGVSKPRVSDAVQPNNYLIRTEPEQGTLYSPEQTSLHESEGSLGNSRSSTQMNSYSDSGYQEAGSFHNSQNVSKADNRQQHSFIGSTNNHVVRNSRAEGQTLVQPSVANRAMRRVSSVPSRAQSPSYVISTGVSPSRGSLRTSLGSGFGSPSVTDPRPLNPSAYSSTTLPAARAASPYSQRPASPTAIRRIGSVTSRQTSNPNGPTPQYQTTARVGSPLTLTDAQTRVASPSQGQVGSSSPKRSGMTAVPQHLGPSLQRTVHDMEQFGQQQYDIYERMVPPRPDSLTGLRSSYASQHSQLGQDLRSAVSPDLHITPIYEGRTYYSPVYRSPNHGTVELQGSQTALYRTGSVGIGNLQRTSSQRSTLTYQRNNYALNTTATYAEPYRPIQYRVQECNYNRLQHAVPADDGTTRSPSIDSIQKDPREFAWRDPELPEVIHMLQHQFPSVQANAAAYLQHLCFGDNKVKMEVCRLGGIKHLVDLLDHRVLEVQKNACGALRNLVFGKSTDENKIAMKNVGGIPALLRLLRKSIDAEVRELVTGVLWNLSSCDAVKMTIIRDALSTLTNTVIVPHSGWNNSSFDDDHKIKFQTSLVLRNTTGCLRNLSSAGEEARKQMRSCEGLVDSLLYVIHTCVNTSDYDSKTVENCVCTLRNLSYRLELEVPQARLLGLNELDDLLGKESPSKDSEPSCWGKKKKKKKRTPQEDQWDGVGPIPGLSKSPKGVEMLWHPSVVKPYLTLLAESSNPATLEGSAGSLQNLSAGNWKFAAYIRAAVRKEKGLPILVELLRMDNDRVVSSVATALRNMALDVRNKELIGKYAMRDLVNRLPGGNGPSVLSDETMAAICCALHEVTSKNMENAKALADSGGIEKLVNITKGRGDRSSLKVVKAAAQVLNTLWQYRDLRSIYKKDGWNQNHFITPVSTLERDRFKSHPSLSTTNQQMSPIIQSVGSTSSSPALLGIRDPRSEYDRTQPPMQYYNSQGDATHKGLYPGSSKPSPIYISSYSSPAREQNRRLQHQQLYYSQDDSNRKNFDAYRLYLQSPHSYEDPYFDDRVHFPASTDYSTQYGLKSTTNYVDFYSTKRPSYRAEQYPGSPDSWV
# Experiments:
# [1] = molecular target: T1, human PKP4 N-terminally tagged with EGFP (EGFP-PKP4-WT) (human); assay: co-IP; GFP-Trap Agarose on lysates of PKP4-KO + GFP-PKP4 (Rescue) keratinocytes, WT + GFP cells as control; IP buffer 20 mM Tris-HCl pH 7.5, 137 mM NaCl, 2 mM EDTA, 10% glycerol, 1% NP-40; 1 h at 4 °C; western blot
# [2] = molecular target: T1, human PKP4 N-terminally tagged with EGFP (EGFP-PKP4-WT) (human); assay: as above; remark: listed apart in the source
binding [1],binding [2],Molecule
no binding,–,ROCK1 (from UniProt P70335 1-1354) (enzyme)
–,binds,"RACGAP1 (protein, UniProt Q9WVM1 1-628) MDTTMVNLWTLFEQLVRRMEIINEGNESIEFIQVVKDFEDFRKKYQRTNQELEKFKDLLLKAETGRSALDVKLKHARNQVDVEIKRRQRAEAECAKLEQQIQLIRDILMCDTSGSIQLSEEQKSALAFLNRGQASSGHAGNNRLSTIDESGSILSDISFDKTDESLDWDSSLVKNFKMKKREKRRSNSRQFIDGPPGPVKKTCSIGSTVDQANESIVAKTTVTVPSDGGPIEAVSTIETLPSWTRSRGKSGPLQPVNSDSALNSRPLEPRTDTDNLGTPQNTGGMRLHDFVSKTVIKPESCVPCGKRIKFGKLSLKCRDCRLVSHPECRDRCPLPCIPPLVGTPVKIGEGMLADFVSQASPMIPAIVVSCVNEIEQRGLTEAGLYRISGCDRTVKELKEKFLKVKTVPLLSKVDDIHVICSLLKDFLRNLKEPLLTFWLSKAFMEAAEITDEDNSTAAMYQAVSELPQANRDTLAFLMIHLQRVSQSPDTKMDIANLAKVFGPTIVAHTVPNPDPVTMFQDIKRQLKVVERLLSLPLEYWNQFMMVDQENIDSQRGNGNSTPRTPDVKVSLLGPVTTPEFQLVKTPLSSSLSQRLYNLSKSTPRFGNKSKSATNLGQQGKFFPAPYLK"

# The next lines start with the molecule.
Molecule,binding [1],binding [2]
ARHGAP21 (from UniProt Q6DFV3 1-1945),no binding,–
"ARHGAP23 (protein, UniProt Q69ZH9 1-1483) MNGVAFCLVGIPPRPEPRPPQLPLGPRDGCSSGRPLPWPGPRTLLLRKSLQDGFGFTLRHFIVYPPESAVHCILKEEENGGRGGGPSPRHRLEPMDTIFVKNVKDGGPAHRAGLRTGDRLVKVNGESIIGKTYSQVIGLIQNSDDTLELSIMPKDEDILQLAYSQDAYLKGNEPYSGEARSIPEPPPLCYPRKTYAPPTRAPAWATMVPEPISALPPDPRSPAAWSDPGSRVPSATRAHLDNSSLGMSQPRPSPGAFPHLPSESRTPRAFPEPGSRVLPSRLECQQALSHWLSNQIPRRAGERRCPAMPPRARSASQDRLEDVTTHHPWPCSTSQDALSQLGQEGWHRARSDDYLSRATRSAEALGPGALVSPRLERCGWASQRPSARTSACPSRDLTQAPPPSGLQGLDDIGYIGYRSYSPSFQRRTGLLHALSFRDSPFGGLPTFSLAQSPASFPPEASEPPRVVRPDPSTRALEPPAEDHRDEVVLRQKPPTGRKVQLTPARQMNLGFGDESPEPEARGERLGRKVAPLATTEDSLASIPFIDEPTSPSIDLQAKHVPASAVVSSAMNSAPVLGTSPSSPTFTFALSRHYSQDCSSIKAGRRSSYLLAITTERSKSCDDGLNTFRDEGRVLRRLPSRVPSLRVLRSFFTDGSLDSWGTSEDADAPSKRHSTSDLSDATFSDIRREGWLYYKQILTKKGKKAGGGLRQWKRVYAVLRARSLSLSKERREPGPAAAGAAAAGAGEDEAAPVCIGSCLVDISYSETKRRHVFRLTTADFCEYLFQAEDRDDMLGWIRAIRENSRAEGEDPGCANQALISKKLNDYRKVSHSSGPKADSSPKGSRGLGGLKSEFLKQTAVRGLRTQEQPPGSKEDSVAAPKTPWGINIIKKNKKAAPRAFGIRLEECQPATENQRVPLIVAACCRIVEARGLESTGIYRVPGNNAVVSSLQEQLNRGPSDINLQDERWQDLNVISSLLKAFFRKLPEPLFTDDKYNDFIEANRIEDSRERMKTLRKLIRDLPGHYYETLKFLVGHLKTIADHSEKNKMEPRNLALVFGPTLVRTSEDNMTDMVTHMPDRYKIVETLIQHSDWFFSDDEDKGERTPVDDKEPQSVPNIEYLLPNIGRTVPPSDPGSDSTTCSSAKSKGSWVPKKEPYAREMLAISFISAVNRKRKKRREARGLGSSTDDDSEQEAHKAAVGTQEPPEGQLPGPAAEEAPGRLSPPTAPDERPAADTRSIVSGYSTLSTMDRSVCSGTGGRRAGAGDEADDERSELSHVETDTEGGAGPGGRLSRRPSFSSHHLMPCDTLARRRLSRSRAEAEGPGAGTARACPRGPEPPGSASSSSQESLRPPAAAPALGSRPSRVEALRLRLRGTADDMLAVRLRRPLSPETRRRRSSWRRHTVVVQSPLTDLNFNEWKELGGGGPQESVGVRPHSDNKDSGLSSLESTKARASSAASLPSGDLGALQGLPQRRSAAARLHQCL",–,binds
"ARHGAP24 (protein, UniProt Q8C4V1 1-747) MEERCESTESPQGQGRKNTKCGWLRKQGGFVKTWHTRWFVLKGDQLYYFKDEDETKPLGTIFLHGNKVIEHPCNEENPGKFLFDVVPGGERDRMTANHESYLLMASTQNDMEDWVKSIRRVIWGPFGGGIFGQKLEDTVRYEKRYGNRLAPMLVEQCVDFIRQRGLKEEGLFRLPGQANLVKELQDAFDCGEKPSFDSNTDVHTVASLLKLYLRELPEPVVPYAKYEDFLSCATLLSKEEEAGVKELMKQVKSLPVVNYNLLKYICRFLDEVQSYSGVNKMSAQNLATVFGPNILRPKVEDPLTIMEGTVVVQQLMSVMISKHDRLFPKDTEPQSKPQDGPNSNNNDGHKKATMGQLQNKENNNTKESPVRRCSWDKPESPQRSSVDNGSPTALSGSKTNSPRNSIHKLDISRSPPLMVKKNPAFNKGSGIVTNGSFSSSNAEGVEKPQTTPNGSLQARRTSSLKSSGTKMGTHSVQNGTVRMGILNTDTLGNSLNGRSMSWLPNGYVTLRDNKQKEPAGESGQHNRLSTYDNVHQQFSSMSLDDKHSVDSATWSTSSCEISLPENSNSCRSSTTTCPEQDFYVGNFEDPVLDGPPQDDLSHPGDYENKSDRRSVGGRSSRATSSSDNSETFVGNTSSNHSALHSLVSSLKQEMTKQKIEYESRIKSLEQRNLTLETEMLSLHDELDQERKKFTMIEIKMRNAERAKEDAEKRNDMLQKEMEQFFSTFGDLTVEPRRSERGNTIWIQ",–,binds
"ECT2 (epithelial cell transforming 2) (protein, UniProt Q07139 1-913) MADDSVLPSPSEITSLADSSVFDSKVAEMSKENLCLASTSNVDEEMPQVEARVIMVQDAGKQEELLKALKTIKIMEVPVIKIKESCPGKSEEKLIKSIINMEMKVPCVKMDSMEEFESLDSPEFENIFVVTDFQNSVFNDLYKADCRIVGPPVILNCAQRGEPLPFSCRPLYCTSMLNLVLCFTGFRKKEELVKLVTLVHHMGGVIRKECNSKVTHLVANCTQGEKFRVAVSLGTPIMKPEWIYKAWERRNEQCFCAAVDDFRNEFKVPPFQDCILSFLGFSDEEKHSMEEMTEMQGGSYLPVGDERCTHLIVEENTVKDLPFEPSKKLFVVKQEWFWGSIQMDARAGETMYLYEKANTPELKKSVSLLSLSTPNSNRKRRRLKETLAQLSRETDLSPFPPRKRPSAEHSLSIGSLLDISNTPESSIHYGETPKSCAKSSRSSTPVPPKQSARWQVAKELYQTESNYVNILATIIQLFQVPLEEEGQRGGPILAPEEIKTIFGSIPDIFDVHMKIKDDLEDLIANWDESRSIGDIFLKYAKDLVKTYPPFVNFFEMSKEMIIKCEKQKPRFHAFLKINQAKPECGRQSLVELLIRPVQRLPSVALLLNDLKKHTADENPDKSTLEKAIGSLKEVMTHINEDKRKTEAQKQIFDVVYEVDGCPANLLSSHRSLVQRVETVSLGEHPCDRGEQVTLFLFNDCLEIARKRHKVIGTFRSPHDRTRPPASLKHIHLMPLSQIKKVLDIRETEDCHNAFALLVRPPTEQANVLLSFQMTSEELPKESWLKMLCRHVANTICKADAENLMYVADPESFEVNTKDMDSTLSRASRAIKKTSKKVTRAFSFSKTPKRALRMALSSSHSSEGRSPPSSGKLAVSRLSSTSSLAGIPSPSLVSLPSFFERRSHTLSRSTTHLI",–,binds
"ARHGEF2 (also called GEFH1) (protein, UniProt Q60875 1-985) MSRIESLTRARIDRSKEQATKTREKEKMKEAKDARYTNGHLFTTISVSGMTMCYACNKSITAKEALICPTCNVTIHNRCKDTLANCTKVKQKQQKAALLRNNTALQSVSLRSKTTTRERPTSAIYPSDSFRQSLLGSRRGLSSLSLAKSVSTTNIAGHFNDESPLGLRQILSQSTDSLNMRNRTLSVESLIDEGVEVFYNELMSDFEMDEKDFEADSWSLAVDSSFLQQHKKEVMKKQDVIYELIQTELHHVRTLKIMTRLFRTGMLEELQMEPEVVQGLFPCVDELSDIHTRFLNQLLERRRQALCPGSTRNFVIHRLGDLLISQFSGSNAEQMRKTYSEFCSRHTKALKLYKELYARDKRFQQFIRKMTRSAVLKRHGVQECILLVTQRITKYPVLINRILQNSHGVEEEYQDLASALGLVKELLSNVDQDVHELEKEARLQEIYNRMDPRAQTPVPGKGPFGRDELLRRKLIHEGCLLWKTATGRFKDVLLLLMTDVLVFLQEKDQKYIFTSLDKPSVVSLQNLIVRDIANQAKGMFLISSGPPEMYEVHAASRDDRTTWIRVIQQSVRLCPSREDFPLIETEDKAYLRRIKTKLQQKNQALVELLQKNVELFAEMVHFQALKAGFVGMPPPALPRGLFRLESFESLRGERLLKDALREVEGLKDLLLGPCVDLPMTSREPALPLDSDSGSCPGVTANGEARTFNGSIELCRADSDSSQKDRNGNQLRSPQEEVLQPLINLYGLLHGLQAVVVQQERLMEALFPEGPERWEKLSRANSRDGEAGRAAVASVTPEKQATELALLQRQHTLLQEELRRCQRLGEERATEAGSLEARLRESEQARALLEREAEEIRRQLAALGQNEPLPAEAPWARRPLDPRRRSLPAGDALYLSFNPPQPSRGHDRLDLPVTVRSLHRPFDDREAQELGSPEDRLQDSSDPDTGSEEEVSSRLSPPHSPRDFTRMQDIPEETESRDGEPTASES",–,binds
